# In PubChem BioAssay (Tox21):
# The shares of active, inactive and inconclusive entries below differ from those in the screen. For some assays here: Potencies of inconclusive entries are left out as doubtful fits. Calls of active or inactive are those of the source. Unless noted, calls come from the whole dose curve; as a rule, active = well fitted curve in the direction sought with a large enough effect in the repeat runs; inconclusive = weak or mixed curves; inactive = no such curve, though single readings can be large; an effect the other way counts as inactive or inconclusive.
# What was measured:
# [1] = qHTS assay for small molecules that induce genotoxicity in human embryonic kidney cells expressing luciferase-tagged ATAD5 - cell viability (AID 651634; calls by dose curve; note: potency is the fitted concentration of half-maximal effect; nearly all actives have a fitted effect of over 25% in size)
# Method in brief: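 Quantitative high-throughput format. HEK293T cells expressing ATAD5 fused to luciferase were plated at 2,000 cells/well and treated 15.5 hr with compound versus DMSO. Viability was determined by fluorescent live-cell protease substrate, 30 min at 37C.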
# [2] = qHTS RealTime-Glo MT Cell Viability Assay in HepG2 cells - 0 hour (AID 1224889); note: potency is the fitted concentration of half-maximal effect; nearly all actives have a fitted effect of over 50% in size
# Method in brief: (§1)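 Compound treatment began 5 h after plating HepG2 cells (600/well) with NanoLuc luciferase and prosubstrate. Plates stayed at 37 C for 40 h; luminescence was captured at six time points, 0 h through 40 h.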
# [3] = qHTS assay to identify small molecule phospholipidosis (PLD) inducers (AID 1259344; active = well fitted curve in the direction sought with a large enough effect; inconclusive = small, poorly fitted or top-dose-only effect, or another doubt; inactive = no such curve, though single readings can be large; an effect the other way counts as inactive or inconclusive; note: potency is the fitted concentration of half-maximal effect; for PLD induction: % is set by controls: 0 for no effect and ±100 for the full control effect); conditions: HepG2 phospholipidosis, LipidTOX Red imaging, 24 h; PLD induction: at 38.3 µM (top of the series) unless noted
# Method in brief: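 After 4 h attachment on collagen I, HepG2 cells were dosed with compound alongside LipidTOX Red, kept 24 h at 37 C, fixed, and imaged for lamellar phospholipid pits.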
# [4] = qHTS assay to identify small molecule HDAC inhibitors (AID 1259364);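 note: wild-type HCT-116 cells with endogenous class I/II HDAC activity; potency is the fitted concentration of half-maximal effect; nearly all actives have a fitted effect of over 45% in size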
# Method in brief: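 After a 2 hr compound incubation (37C, 5% CO2), HCT-116 cells seeded at 1,500/well the day before received HDAC-Glo reagent; signal read as luminescence after 30 min at room temperature.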
# [5] = molecular target: Voltage-gated inwardly rectifying potassium channel KCNH2 (Homo sapiens) (UniProt Q12809); experiment: Human Ether-a-go-go-Related Gene (hERG) channel small molecule antagonists: fluorescence cell-based qHTS assay (AID 1671200); note: potency is the fitted concentration of half-maximal effect; nearly all actives have a fitted effect of over 50% in size
# Chain of UniProt Q12809 (Q12809 whole entry, looked up): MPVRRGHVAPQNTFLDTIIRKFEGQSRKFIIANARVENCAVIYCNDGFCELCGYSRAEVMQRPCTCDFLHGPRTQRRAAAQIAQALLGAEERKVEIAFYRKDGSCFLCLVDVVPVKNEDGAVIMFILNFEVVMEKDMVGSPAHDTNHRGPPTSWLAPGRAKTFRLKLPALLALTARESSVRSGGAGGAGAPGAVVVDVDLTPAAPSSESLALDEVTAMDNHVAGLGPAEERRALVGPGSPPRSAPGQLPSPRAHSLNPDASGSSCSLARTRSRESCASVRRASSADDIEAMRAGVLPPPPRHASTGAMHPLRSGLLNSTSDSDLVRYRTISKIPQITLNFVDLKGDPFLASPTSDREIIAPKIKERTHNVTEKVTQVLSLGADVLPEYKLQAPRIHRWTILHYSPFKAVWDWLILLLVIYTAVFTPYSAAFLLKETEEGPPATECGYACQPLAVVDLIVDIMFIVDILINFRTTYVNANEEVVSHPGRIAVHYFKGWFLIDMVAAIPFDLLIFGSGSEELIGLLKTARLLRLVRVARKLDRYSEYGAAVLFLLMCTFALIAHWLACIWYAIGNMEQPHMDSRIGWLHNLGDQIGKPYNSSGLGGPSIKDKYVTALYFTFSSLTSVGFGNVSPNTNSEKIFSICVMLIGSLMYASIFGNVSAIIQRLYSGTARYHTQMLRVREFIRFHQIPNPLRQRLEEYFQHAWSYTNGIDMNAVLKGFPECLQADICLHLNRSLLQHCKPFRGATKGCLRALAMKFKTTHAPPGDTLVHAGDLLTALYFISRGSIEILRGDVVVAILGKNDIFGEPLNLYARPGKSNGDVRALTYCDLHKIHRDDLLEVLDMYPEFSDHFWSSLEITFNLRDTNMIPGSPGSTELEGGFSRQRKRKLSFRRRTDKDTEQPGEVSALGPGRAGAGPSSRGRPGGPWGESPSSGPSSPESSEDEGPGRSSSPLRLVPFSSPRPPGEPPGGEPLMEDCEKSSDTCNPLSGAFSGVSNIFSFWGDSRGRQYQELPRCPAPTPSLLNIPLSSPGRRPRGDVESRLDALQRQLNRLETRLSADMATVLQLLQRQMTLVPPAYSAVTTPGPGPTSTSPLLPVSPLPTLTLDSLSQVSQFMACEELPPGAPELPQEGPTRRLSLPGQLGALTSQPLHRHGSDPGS
# Method in brief: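 U2OS cells expressing the channel were plated at 1000 cells/well, incubated overnight at 37 C, then loaded with FluxOR II thallium-sensitive dye for 1 h at room temperature in the dark, with a further 10 min at room temperature before stimulation.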
# [6] = molecular target: Nuclear receptor subfamily 1 group I member 2 (Homo sapiens) (UniProt O75469); experiment: Human pregnane X receptor (PXR) activation by small molecules, qHTS assay (AID 1346985); note: nearly all actives have a fitted effect of over 40% in size; note: potency is the fitted concentration of half-maximal effect
# Method in brief: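 DPX-2 cells (HepG2 co-transfected with a PXR response element and a CYP3A4-promoter luciferase construct) were seeded at 2,000 per well, rested 5 hr at 37C, then exposed to DMSO-dissolved compounds for 24 hr. Activation was read as luciferase luminescence.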
# [7] = molecular target: Androgen receptor (Homo sapiens) (UniProt P10275); experiment: qHTS assay to identify small molecule agonists of the androgen receptor (AR) signaling pathway in the presence of an antagonist (AID 1259381; calls by dose curve; note: potency is the fitted concentration of half-maximal effect; nearly all actives have a fitted effect of over 15% in size)
# Chain of UniProt P10275 (P10275 whole entry, looked up): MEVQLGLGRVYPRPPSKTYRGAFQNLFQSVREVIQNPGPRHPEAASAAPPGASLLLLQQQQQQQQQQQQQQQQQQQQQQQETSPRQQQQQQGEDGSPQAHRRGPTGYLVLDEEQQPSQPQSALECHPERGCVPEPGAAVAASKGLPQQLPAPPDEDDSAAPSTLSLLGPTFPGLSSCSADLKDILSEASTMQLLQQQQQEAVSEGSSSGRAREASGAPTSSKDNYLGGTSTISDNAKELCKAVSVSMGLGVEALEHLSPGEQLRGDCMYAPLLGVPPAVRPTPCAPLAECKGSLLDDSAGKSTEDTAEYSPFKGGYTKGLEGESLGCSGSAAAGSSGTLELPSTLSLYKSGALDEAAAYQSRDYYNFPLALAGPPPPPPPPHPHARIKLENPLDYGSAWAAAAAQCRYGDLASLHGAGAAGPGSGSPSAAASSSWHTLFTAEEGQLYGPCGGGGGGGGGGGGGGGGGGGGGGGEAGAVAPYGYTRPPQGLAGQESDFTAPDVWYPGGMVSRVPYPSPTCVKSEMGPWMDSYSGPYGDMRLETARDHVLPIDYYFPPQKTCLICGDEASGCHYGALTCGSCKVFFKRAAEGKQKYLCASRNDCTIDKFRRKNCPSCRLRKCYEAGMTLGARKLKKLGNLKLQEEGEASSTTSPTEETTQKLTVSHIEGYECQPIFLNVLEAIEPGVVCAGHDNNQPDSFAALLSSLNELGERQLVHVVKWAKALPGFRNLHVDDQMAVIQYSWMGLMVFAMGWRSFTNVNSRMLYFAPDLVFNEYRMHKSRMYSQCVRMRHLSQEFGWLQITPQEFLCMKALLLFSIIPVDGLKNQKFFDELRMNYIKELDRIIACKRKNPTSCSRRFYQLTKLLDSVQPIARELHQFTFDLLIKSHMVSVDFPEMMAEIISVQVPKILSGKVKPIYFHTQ
# Method in brief: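 AR antagonist background: nilutamide 3.0uM final. Cell line: MDA-kb2, MMTV-driven luciferase, responsive to both AR and GR. Exposure 16hr, 37C, no CO2; ONE-Glo luminescence.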
# [8] = molecular target: Estrogen receptor (Homo sapiens) (UniProt P03372); experiment: qHTS assay to identify small molecule agonists of the estrogen receptor alpha (ER-alpha) signaling pathway (AID 743075; calls by dose curve;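 note: HEK293 GripTite cells with ER-alpha and UAS-driven beta-lactamase reporter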; note: potency is the fitted concentration of half-maximal effect; for activation: % is set by controls: 0 for no effect and ±100 for the full control effect); conditions: HEK293 ER-alpha-UAS-bla, beta-lactamase FRET ratio, 18 h; activation: at 70.1 µM (top of the series)
# Chain of UniProt P03372 (P03372 whole entry, looked up): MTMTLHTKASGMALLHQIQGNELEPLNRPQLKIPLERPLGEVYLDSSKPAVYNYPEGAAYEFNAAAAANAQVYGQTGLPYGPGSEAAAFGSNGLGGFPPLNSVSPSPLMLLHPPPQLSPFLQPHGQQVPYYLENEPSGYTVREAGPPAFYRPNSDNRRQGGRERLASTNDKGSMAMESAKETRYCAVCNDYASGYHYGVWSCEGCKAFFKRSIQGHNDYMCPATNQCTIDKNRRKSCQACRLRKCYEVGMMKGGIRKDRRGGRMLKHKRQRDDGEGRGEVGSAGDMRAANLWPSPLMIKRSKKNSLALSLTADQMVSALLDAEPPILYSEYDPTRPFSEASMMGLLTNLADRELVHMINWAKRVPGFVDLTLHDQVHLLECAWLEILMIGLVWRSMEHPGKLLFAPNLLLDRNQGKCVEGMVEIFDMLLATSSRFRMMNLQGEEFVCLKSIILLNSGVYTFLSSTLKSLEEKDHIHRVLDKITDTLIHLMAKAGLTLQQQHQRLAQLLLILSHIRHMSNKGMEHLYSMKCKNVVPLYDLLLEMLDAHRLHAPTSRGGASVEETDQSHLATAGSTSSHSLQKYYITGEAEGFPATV
# [9] = qHTS RealTime-Glo MT Cell Viability Assay in HepG2 cells - 32 hour (AID 1224877); note: % is set by controls: 0 for no effect and ±100 for the full control effect; nearly all actives have a fitted effect of over 55% in size
# Method in brief: as §1
# [10] = qHTS assay to identify small molecule antagonists of the androgen receptor (AR) signaling pathway using the MDA cell line in the presence of 0.5 nM R1881 - cell viability counter screen (AID 1259242); note: % is set by controls: 0 for no effect and ±100 for the full control effect; nearly all actives have a fitted effect of over 45% in size
# Method in brief: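 Human breast carcinoma MDA-kb2 cells, cultured without CO2, receive compounds alongside 0.5 nM (final) R1881 agonist. After 16 hr at 37C, viability is taken as live-cell protease signal.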
# [11] = qHTS assay for small molecules that induce genotoxicity in human embryonic kidney cells expressing luciferase-tagged ATAD5 (AID 651632); note: nearly all actives have a fitted effect of over 15% in size; note: potency is the fitted concentration of half-maximal effect; for activation: % is set by controls: 0 for no effect and ±100 for the full control effect
# Method in brief: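 Test compounds were delivered by pin tool onto HEK293T reporter cells (2,000/well) expressing ATAD5 fused to luciferase. After 16 hr at 37C, 5% CO2, Amplite was added for 30 min at room temperature and luminescence was measured.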
# [12] = qHTS assay to identify small molecule agonists of the hypoxia (HIF-1) signaling pathway - cell viability counter screen (AID 1224844; calls by dose curve; note: % is set by controls: 0 for no effect and ±100 for the full control effect; nearly all actives have a fitted effect of over 50% in size)
# Method in brief: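 Same wells as the HIF-1 reporter screen; ME-180 cells carrying HRE-bla, 17 hr treatment at 37C; CellTiter-Glo luminescence read after 30 min at room temperature.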
# [13] = qHTS assay for small molecule agonists of the p53 signaling pathway - cell viability (AID 651633; calls by dose curve; note: nearly all actives have a fitted effect of over 30% in size; note: potency is the fitted concentration of half-maximal effect;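 for activity change, negative = cytotoxicity: p53RE-bla HCT reporter cells with a stable beta-lactamase p53 reporter; % is set by controls: 0 for no effect and ±100 for the full control effect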)
# Method in brief: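 p53RE-bla cells, seeded at 4,000 per well and rested 5 h at 37 C/5% CO2, received compounds in DMSO for 16 h at 37 C. CellTiter-Glo was then added, and luminescence was read after 30 min at room temperature to gauge cytotoxicity.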
# [14] = molecular target: Androgen receptor (Homo sapiens) (UniProt P10275); experiment: qHTS assay to identify small molecule antagonists of the androgen receptor (AR) signaling pathway using the MDA cell line (AID 743042; note: % is set by controls: 0 for no effect and ±100 for the full control effect; nearly all actives have a fitted effect of over 55% in size)
# Method in brief: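 MDA-kb2 cells (human breast carcinoma, stably carrying an MMTV-luciferase reporter responsive to AR and GR) were plated at 3,000 cells/well and preincubated 5 hr at 37C, then given compound plus R1881 agonist for 16 h. ONE-Glo luminescence was read.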
# [15] = qHTS assay for small molecule activators of the heat shock response signaling pathway - cell viability counter screen (AID 743209); conditions: HSE-bla HeLa viability, CellTiter-Glo luminescence, 5 h; activity change, negative = cytotoxicity: at 62.6 µM (top of the series) unless noted; note: % is set by controls: 0 for no effect and ±100 for the full control effect; nearly all actives have a fitted effect of over 50% in size
# Method in brief: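 Same-well multiplex: after 2.5 h room-temperature incubation with LiveBLAzer B/G substrate and fluorescence reading, CellTiter-Glo reagent was added to HSE-bla HeLa cells that had received compound for 5 h at 37 C; luminescence read after 30 min.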
# [16] = A CellTox Green Cytotoxicity Assay to monitor cytotoxicity in HepG2 cells - 16 hour (AID 1224876); note: nearly all actives have a fitted effect of over 45% in size; note: potency is the fitted concentration of half-maximal effect
# Method in brief: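 Fluorescent DNA-binding dye, 600 HepG2 cells/well, 5 h preincubation then compound in DMSO; same plates read at 0–40 h, 37 C.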
# [17] = qHTS assay to identify small molecule agonists of the estrogen related receptor (ERR) signaling pathway from Tox21 library (AID 1224849; calls by dose curve; note: % is set by controls: 0 for no effect and ±100 for the full control effect; nearly all actives have a fitted effect of over 15% in size); conditions: ERR reporter cell line, ONE-Glo luciferase, 18 h; at 92.4 µM (top of the series) unless noted
# Method in brief: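 Reporter cells (ERR, NTP source) treated with Tox21 10K compounds 18 h, 37 C. Readout: ONE-Glo luminescence, 30 min RT.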
# Tags give direction and shape of the fitted curve or compound fluorescence and quenching.
structure (smiles),measurement,setting,value
Cc1ncc([C@@H](CCCCCCc2ccc3c(n2)NCCC3)CC(=O)O)cn1,Potency,[1],active: 27.3 nM
CCn1c(=O)c2c(nc(/C=C/c3ccc(OC)c(OC)c3)n2C)n(CC)c1=O,Potency,[2],"inconclusive [cytotoxic, partial curve]"
O=C(CCCN1CCN(c2ccccn2)CC1)c1ccc(F)cc1,Potency,[3],inactive
same,Potency,[4],"inconclusive [inhibitor, partial curve, poor fit]"
same,Potency,[5],active: 6.74 µM
O=C(CN1CCN(Cc2ccc3c(c2)OCO3)CC1)N1c2ccccc2Sc2ccccc21,Potency,[6],"inconclusive [activator, partial curve, poor fit]"
CCN1CCC[C@H]1CNC(=O)c1cc(S(N)(=O)=O)ccc1OC,Potency,[7],"inconclusive [rising, partial curve, poor fit]"
Nc1cccc(S(=O)(=O)c2cccc(N)c2)c1,Potency,[8],inactive
SCCSCCS,Potency,[9],inactive
c1coc(Cn2cccc2)c1,Potency,[10],inactive
CC(c1cc2ccccc2s1)N(O)C(N)=O (configuration not stated),Potency,[11],inactive
CCCCC(CC)C(=O)OC(C)C (configuration not stated),Potency,[11],inactive
C[C@@H](O)C(=O)O,Potency,[12],inactive
O=c1[nH]c(=O)n([C@H]2C[C@H](O)[C@@H](CO)O2)cc1Br,Potency,[11],"inconclusive [activator, partial curve, poor fit]"
CC(C(=O)O)c1ccc2c(c1)CC(=O)c1ccccc1S2 (configuration not stated),Potency,[3],inactive
C[N+](C)(C)CCOC(=O)CCC(=O)OCC[N+](C)(C)C,Potency,[13],inactive
CCCC(=O)O[C@]1(C(=O)CCl)[C@@H](C)C[C@H]2[C@@H]3CCC4=CC(=O)C=C[C@]4(C)[C@@]3(F)C(=O)C[C@@]21C,Potency,[13],"inconclusive [cytotoxic, partial curve, poor fit]"
same,Potency,[14],inactive
same,Potency,[7],active: 4.7 nM
same,Potency,[5],"inconclusive [inhibitor, partial curve]"
CC(=O)SC[C@@H](C)C(=O)N1CCC[C@H]1C(=O)N[C@@H](Cc1ccccc1)C(=O)O,Potency,[3],active: 3.55 µM
Oc1ccccc1Cc1ccccc1O,Potency,[8],"inconclusive [falling, partial curve, poor fit]"
CC(C)(C)c1ccc(C=O)cc1,Potency,[12],inactive
same,Potency,[10],inactive
Cc1c(C(C)C)c(=O)n(-c2ccccc2)n1C,Potency,[6],inactive
O=[N+]([O-])c1cccc(Cl)c1Cl,Potency,[15],inactive
same,Potency,[16],inactive
Cc1ccc(S(=O)(=O)NC(=O)NC2CCCCCCC2)cc1,Potency,[6],"inconclusive [activator, single point]"
CN1CCN(c2c(F)cc3c(=O)c(C(=O)O)cn4c3c2SCC4)CC1,Potency,[12],inactive
CC(C)=CCOC(=O)c1ccccc1,Potency,[16],"inconclusive [activator, single point]"
Cc1ccc2c(c1)c1c3n2CCNC3CCC1 (configuration not stated),Potency,[3],"inconclusive [activator, single point]"
C[C@@H]1CN(c2c(F)c(F)c3c(=O)c(C(=O)O)cn(C4CC4)c3c2F)C[C@H](C)N1,"activity change, positive = activation",[17],active: 1.67% [at 19 µM]
